From article PMC8481289, “Structural basis for UFM1 transfer from UBA5 to UFC1” (Nature Communications, 2021)

Biological target: T1, UFC1 (WT) (human, UniProt Q9Y3C8 1-167)
T1 construct: UFC1, the E2 of UFM1; active site C116; 15N-labelled (M9 medium with 15NH4Cl) for the NMR titrations; In the two crystal structures UFC1 stood as part of a fusion chain; also called E2
T1 sequence: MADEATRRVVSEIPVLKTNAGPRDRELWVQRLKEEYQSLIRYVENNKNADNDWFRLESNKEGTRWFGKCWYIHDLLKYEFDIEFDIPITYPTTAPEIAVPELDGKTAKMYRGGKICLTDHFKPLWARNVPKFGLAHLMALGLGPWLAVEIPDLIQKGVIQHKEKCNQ
Assay: ITC; UFC1 titrated into the UBA5 construct (heat per mole of UFC1); MicroCal PEAQ ITC, 25 °C; 20 mM Tris pH 7.5, 50 mM NaCl, 2 mM DTT; 19 injections of 2 μl; fitted to the two sets of sites model
Settings: both partners purified

binding result: binds
B1: UBA5 […] (domain or fragment)
chain: not shown
notes: UBA5, human, […] (UIS, linker and UBS; no adenylation domain); also called UBA5 lacking the adenylation domain
